{"source": "PubChem BioAssay AID1345082", "about": "(National Center for Advancing Translational Sciences (NCATS), 2018)", "note": "The campaign covered roughly 94,000 compounds. About 4,000 (4.3%) were called active. Inconclusive results, whose numbers are uncertain, are shown with a selection of clear calls. Calls follow the shape of the dose curve; as a rule, active = well fitted inhibition curve with a large enough effect; inconclusive = small, poorly fitted or top-dose-only effect; inactive = no such curve, though single readings can be large or run the other way. Potencies beside an inconclusive call are fits to weak or partial responses and may not hold up. Potency is read from the fitted curve at half-maximal effect; tags tell the direction and shape of the fitted curve.", "data": [{"assay": "Cytotoxic Profiling in NIH 3T3 Cell Line of Diverse Libraries Using Quantitative High-Throughput Screening; also: nearly all actives have a fitted effect of over 55% in size", "conditions": "NIH 3T3 viability, CellTiter-Glo ATP luminescence, 48-72 h; series mostly up to 96.7 µM", "outline": "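Luminescent ATP readout (CellTiter-Glo, 10 min RT) after 48 or 72 hr compound exposure of NIH 3T3 cells seeded at 400 cells/well in 1536-well format; quantitative HTS.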", "values": [{"smiles": "Cc1cnc(-c2ccccc2)n1CC1CCN(S(=O)(=O)Cc2ccccc2F)CC1", "Potency": "inconclusive: 44.7 µM [inhibitor, partial curve, poor fit]"}, {"smiles": "O=C(NCc1ccc(C(F)(F)F)cc1)c1nc2cccnc2n(C2CC2)c1=O", "Potency": "inconclusive: 50.1 µM [inhibitor, partial curve, poor fit]"}, {"smiles": "O=C1NC2(CCN(C(=O)c3ccc(C(F)(F)F)cc3)C2)Oc2ccccc21", "note": "(stereo not given)", "Potency": "inactive"}, {"smiles": "CN1Cc2ccccc2N(CC(O)Cc2ccccc2)CCC1=O", "note": "(stereo not given)", "Potency": "inconclusive: 50.1 µM [inhibitor, partial curve, poor fit]"}, {"smiles": "COCCn1cnc2ccc(-c3ccnn3C)nc2c1=O", "Potency": "inconclusive: 100 µM [inhibitor, partial curve, poor fit]"}, {"smiles": "O=C1NC(=NC2CCCC2)C2(CCCN([S+](=O)([O-])c3ccccc3)C2)N1c1cc(F)cc(F)c1", "note": "(stereo not given)", "Potency": "inconclusive: 50.1 µM [inhibitor, partial curve, poor fit]"}, {"smiles": "COC(=O)[C@@H]1Cc2c([nH]c3ccccc23)[C@H]2C[C@H](NCCN3CCOCC3)C[C@@H](c3ccc(F)cc3)N21", "Potency": "active: 25.1 µM"}, {"smiles": "Cc1c(-c2ccc(F)cc2)[nH]c2ccc(CNC(=O)[C@@H]3CCCO3)cc12", "Potency": "inconclusive: 50.1 µM [inhibitor, partial curve, poor fit]"}, {"smiles": "CC(C)N1C(=O)C2(CCCC2)C1C(=O)N(C)Cc1cccnc1", "note": "(stereo not given)", "Potency": "inactive"}, {"smiles": "COC(=O)c1ccc(CNCC2=CC(C)(C)COc3ccc(OC)cc32)cc1", "Potency": "inconclusive: 44.7 µM [inhibitor, partial curve, poor fit]"}, {"smiles": "Cc1onc(C(=O)N2CCCC(Cc3nncn3Cc3ccccc3)C2)c1Cn1cc(Cl)cn1", "note": "(stereo not given)", "Potency": "inconclusive: 56.2 µM [inhibitor, partial curve, poor fit]"}, {"smiles": "CNC(=O)[C@@H]1C[C@H](Oc2ccccc2)CN1C(=O)CCc1nc2ccccc2[nH]1", "Potency": "inactive"}, {"smiles": "O=C(NCc1ccccc1)c1cn2cc(-c3ccc(C(F)(F)F)cc3)sc2n1", "Potency": "inactive"}, {"smiles": "COc1ccc(C2=NOC3(CCCN(C(=O)Cc4ccccc4)C3)C2)cc1", "note": "(stereo not given)", "Potency": "inactive"}, {"smiles": "Cc1cc(=O)n(CC(=O)Nc2cccc(C)c2C)c(N2CCc3ccccc3C2)n1", "Potency": "inconclusive: 56.2 µM [inhibitor, partial curve, poor fit]"}, {"smiles": "COc1ccccc1Nc1ccnc(N2CCC(NC(=O)c3ccccc3OC)CC2)n1", "Potency": "inconclusive: 50.1 µM [inhibitor, partial curve, poor fit]"}, {"smiles": "COC(=O)C1=C(C)N=C2SC=C(CC(=O)NC3CC3)N2C1c1cccc(F)c1", "note": "(stereo not given)", "Potency": "inactive"}, {"smiles": "CC1(C)[C@H]2CC[C@@H](CNC(=O)c3cccc(Br)c3)[C@@H]1C2", "Potency": "inconclusive: 56.2 µM [inhibitor, partial curve, poor fit]"}, {"smiles": "Cn1nc(C(=O)NC2CC2)c2c1CN(C(=O)Cc1cccc(F)c1)C2", "Potency": "inactive"}, {"smiles": "COc1ccc(C(=O)NC2CCN(c3cnn(CC4CC4)c(=O)c3)CC2)c(OC)c1", "Potency": "inconclusive: 44.7 µM [inhibitor, partial curve, poor fit]"}, {"smiles": "FC(F)(F)c1ccc(CN2CC[C@H](c3nc4cc(Cl)ccc4o3)C2)cc1", "Potency": "inconclusive: 89.1 µM [inhibitor, partial curve, poor fit]"}, {"smiles": "COCC1CN(C2CCC2)CC12CCN(C(=O)NCCc1ccccc1)CC2", "note": "(stereo not given)", "Potency": "inconclusive: 39.8 µM [inhibitor, partial curve]"}, {"smiles": "COc1cccc(C(=O)Nc2cc(-c3ccncc3)nn2-c2ccccc2)c1", "Potency": "inconclusive: 44.7 µM [inhibitor, partial curve, poor fit]"}, {"smiles": "O=C(O)c1ccc([S+](=O)([O-])N2CC(COc3ccccc3)C3(CN(c4ccccc4)C3)C2)cc1", "note": "(stereo not given)", "Potency": "active: 31.6 µM"}, {"smiles": "Cc1ccccc1CN1CCn2nnc(-c3nc(-c4ccsc4)no3)c2C1=O", "Potency": "inconclusive: 50.1 µM [inhibitor, partial curve, poor fit]"}, {"smiles": "Cn1c(Cn2cccn2)nnc1C1CC(Nc2ncnc3sccc23)C1", "note": "(stereo not given)", "Potency": "inconclusive: 50.1 µM [inhibitor, partial curve, poor fit]"}, {"smiles": "CCOCCCNC(=O)CNC(=O)c1cccc(-c2cc(F)ccc2OC)c1", "Potency": "inconclusive: 50.1 µM [inhibitor, partial curve, poor fit]"}, {"smiles": "O=C(c1ccc(C(F)(F)F)cc1)N1CCC(c2nn(Cc3ccccc3)c(=O)[nH]2)CC1", "Potency": "inconclusive: 70.8 µM [inhibitor, single point]"}, {"smiles": "O=C(Nc1ccsc1)N[C@H]1C[C@H]2C(=O)NC[C@@H](CCC(=O)N3CCC(O)CC3)N2C1", "Potency": "inactive"}, {"smiles": "COc1ncccc1C(=O)N1CCc2onc(-c3cccc4ccccc34)c2C1", "Potency": "inactive"}, {"smiles": "O=c1ccc(-c2cc(-c3cccc4cn[nH]c34)cn3cncc23)c[nH]1", "Potency": "inconclusive: 79.4 µM [inhibitor, partial curve]"}, {"smiles": "O=C(C1CCC1)N1CCC[C@H](n2c(=O)n(CC3CC3)c3cccnc32)C1", "Potency": "inconclusive: 79.4 µM [inhibitor, partial curve, poor fit]"}, {"smiles": "Cc1ccc(C(=O)N2CC(N(C)c3ccccc3C)C2)cc1", "Potency": "inconclusive: 63.1 µM [inhibitor, partial curve, poor fit]"}, {"smiles": "O=C(NC[C@H]1OC[C@@H](N(Cc2ccccc2)Cc2ccccc2)[C@@H]1O)c1ccccc1", "Potency": "inconclusive: 112 µM [inhibitor, single point]"}, {"smiles": "CC1Oc2ccc(NC(=O)Cc3ccccc3)cc2CN(Cc2ccc(Cl)cc2)C1=O", "note": "(stereo not given)", "Potency": "inconclusive: 39.8 µM [inhibitor, partial curve]"}, {"smiles": "O=C(CC1CCCN(c2cnn(CC3CC3)c(=O)c2)C1)NCCc1cccs1", "note": "(stereo not given)", "Potency": "inconclusive: 70.8 µM [inhibitor, single point]"}, {"smiles": "O=C(NCCNC(=O)C1CC1)c1ccc(-c2cccc(C(F)(F)F)c2)cc1", "Potency": "inactive"}, {"smiles": "Cc1ccc(-n2c(C3CCN(C(=O)c4nn(C)c5ccccc45)CC3)n[nH]c2=O)cc1", "Potency": "active: 8.91 µM"}, {"smiles": "O=C(NCc1ccc2c(c1)OCO2)C1CCc2sc(C(=O)N3CCCCCC3)cc2C1", "note": "(stereo not given)", "Potency": "inconclusive: 50.1 µM [inhibitor, partial curve, poor fit]"}, {"smiles": "Cn1cc(CN[C@H]2[C@H](O)[C@H](O)C[C@@H]2c2cccnc2)c2ccccc21", "Potency": "inconclusive: 56.2 µM [inhibitor, partial curve, poor fit]"}, {"smiles": "O=C1N(Cc2ccccc2F)CCOC12CCN(Cc1ccccc1)CC2", "Potency": "inconclusive: 56.2 µM [inhibitor, partial curve, poor fit]"}, {"smiles": "O=C(NCc1ccccc1)N1CCOC(CN(CC2CC2)C(=O)c2cccc(F)c2)C1", "note": "(stereo not given)", "Potency": "inactive"}, {"smiles": "CC(=O)Nc1ccc(CN2CCC3(CC2)NC(=O)c2ccccc2O3)cc1", "Potency": "inconclusive: 14.1 µM [inhibitor, full curve, poor fit]"}, {"smiles": "COc1cccc(NC(=O)[C@@H]2C[C@H](c3ccc(F)cc3)N(Cc3csc(C)n3)C2)c1", "Potency": "inconclusive: 44.7 µM [inhibitor, full curve]"}, {"smiles": "Cc1ccc(CC(=O)NC2CCN(c3cc(C(F)(F)F)ncn3)CC2)cc1", "Potency": "inconclusive: 35.5 µM [inhibitor, partial curve, poor fit]"}, {"smiles": "CCCCNC(=O)CC(c1cccc([N+](=O)[O-])c1)c1c[nH]c2c(CC)cccc12", "note": "(stereo not given)", "Potency": "inconclusive: 28.2 µM [inhibitor, partial curve]"}, {"smiles": "CCc1ccccc1S(=O)(=O)N1C[C@@H]2C(=O)N(C(CC)c3cccs3)C(=O)[C@@H]2C1", "note": "(stereo not given in full)", "Potency": "inconclusive: 50.1 µM [inhibitor, partial curve, poor fit]"}, {"smiles": "O=C(c1cncc(Br)c1)N1CCC(c2nc(C3CCOCC3)no2)CC1", "Potency": "inconclusive: 50.1 µM [inhibitor, partial curve, poor fit]"}, {"smiles": "Fc1cc(F)cc(Cc2nc3nccc(-c4ccncc4)n3n2)c1", "Potency": "inconclusive: 50.1 µM [inhibitor, single point]"}, {"smiles": "COc1cccc(N2CC3(CN(CCOc4ccccc4)C(=O)O3)C2)c1", "Potency": "inconclusive: 112 µM [inhibitor, single point]"}, {"smiles": "Cc1nc(N2CCC(NC(=O)Cc3ccccc3Cl)CC2)cc(C(F)(F)F)n1", "Potency": "inconclusive: 15.8 µM [inhibitor, full curve]"}, {"smiles": "O=C(c1ccccc1)N1CC2(CCCCN2Cc2cccnc2)Cc2ccccc21", "note": "(stereo not given)", "Potency": "inactive"}, {"smiles": "COc1ccc(CC(=O)N2CCCC(C(=O)N3CCC(N4CCOCC4=O)CC3)C2)cc1", "note": "(stereo not given)", "Potency": "inactive"}, {"smiles": "COc1ccc(NC(=O)Cc2c[nH]c3ncc(-c4ccccc4)cc23)cc1OC", "Potency": "inconclusive: 20 µM [inhibitor, full curve, poor fit]"}, {"smiles": "CC(=O)c1cccc(NC(=O)O[C@@H]2CO[C@H]3[C@@H]2OC[C@@H]3NC(=O)Nc2ccccc2)c1", "Potency": "inactive"}, {"smiles": "O=C([C@@H]1C[C@H](Oc2cccnc2)CN1C(=O)NCCc1ccccc1)N1CCOCC1", "Potency": "inconclusive: 44.7 µM [inhibitor, partial curve, poor fit]"}, {"smiles": "C[S+](=O)([O-])CCn1ncc2cc(OCc3cccc(-c4ccc(F)cc4)c3)ccc21", "Potency": "inconclusive: 100 µM [inhibitor, partial curve, poor fit]"}, {"smiles": "CCC(=O)N1CCC(OC2CCN(C(=O)CC3CCCCC3)CC2)CC1", "Potency": "inconclusive: 50.1 µM [inhibitor, partial curve, poor fit]"}, {"smiles": "CNC(=O)c1cc(C2CC2)nc2onc(C3CCCN3C(=O)c3cccc(OC)c3)c12", "note": "(stereo not given)", "Potency": "inactive"}, {"smiles": "CCOC(=O)[C@@H]1[C@@H](OC)C(=O)N(C)C12CCN(S(=O)(=O)c1ccc(NC(C)=O)cc1)CC2", "Potency": "inconclusive: 50.1 µM [inhibitor, partial curve, poor fit]"}]}]}
